# In the supplement of paper PMC10037445:
# “And” between values parts separate entries of the source, which are not always exact repeats. Identical values can stand only once. In all, about 2,900 compounds were measured (“IRF Lucia reporter activity, fold change vs agonist alone”: median about 0.9, highest 2% from about 2.8 on). The list shows a part of the results.
# Key:
# RAW-Dual [1] = experiment: IRF Lucia reporter activity, fold change vs agonist alone; cytotoxicity flag (confluency mask): not cytotoxic; higher = enhanced IRF activity
# Procedure, shortened: (§1)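 Cytotoxic wells were those whose IncuCyte confluency was below 70% of agonist controls in both mask sets. The cells were RAW-Dual macrophages at 50,000 cells/well in DMEM on 384-well plates, dosed with 50 nL of library stock by pin tool, stimulated with a PRR agonist 1 h later, and kept at 37 °C, 5% CO2 for 20 hours. IRF and NF-κB reporter activity, as fold change over agonist-alone wells, came from supernatant read by QuantiLuc luminescence and QuantiBlue absorbance, respectively.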
# RAW-Dual [2] = experiment: IRF Lucia reporter activity, fold change vs agonist alone; higher = enhanced IRF activity; details: agonist: MPLA (TLR4) […]
# Procedure, shortened: as §1
# RAW-Dual [3] = experiment: IRF Lucia reporter activity, fold change vs agonist alone; cytotoxicity flag (confluency mask): cytotoxic (confluency <70% of control); higher = enhanced IRF activity
# Procedure, shortened: as §1
# [4] = agonist: 3'3'-cGAMP (STING) 10 ug/mL
# [5] = library stock concentration (final ~1000-fold dilution): 10 mM, cytotoxicity flag (confluency mask): not cytotoxic
compound,measurement,setting,value
Nc1ncnc2[nH]nc(Nc3ccc(F)cc3)c12 (library stock concentration (final ~1000-fold dilution): 10 mM),IRF Lucia reporter activity,RAW-Dual [1]; [4],0.171
same,IRF Lucia reporter activity,RAW-Dual [1]; agonist: LPS (TLR4) 0.1 ug/mL,0.472
Nc1ncnc2[nH]nc(Nc3ccc(F)cc3)c12,IRF Lucia reporter activity,RAW-Dual [2]; [5],0.661
CSCC(N)C(=O)O (stereo not given) (library stock concentration (final ~1000-fold dilution): 10 mM),IRF Lucia reporter activity,RAW-Dual [1]; [4],0.989
same,IRF Lucia reporter activity,RAW-Dual [1]; agonist: LPS (TLR4) 0.1 ug/mL,1.05
CCCCc1oc2ccc(NS(C)(=O)=O)cc2c1C(=O)c1ccc(OCCCN(CCCC)CCCC)cc1 (library stock concentration (final ~1000-fold dilution): 10 mM),IRF Lucia reporter activity,RAW-Dual [3]; [4],0.609
same,IRF Lucia reporter activity,RAW-Dual [3]; agonist: LPS (TLR4) 0.1 ug/mL,0.331
CCCCc1oc2ccc(NS(C)(=O)=O)cc2c1C(=O)c1ccc(OCCCN(CCCC)CCCC)cc1,IRF Lucia reporter activity,"RAW-Dual [2]; library stock concentration (final ~1000-fold dilution): 10 mM, cytotoxicity flag (confluency mask): cytotoxic (confluency <70% of control)",0.671
COc1cccc2c1C(=O)c1c(O)c3c(c(O)c1C2=O)CC(O)(C(=O)CO)CC3OC1CC(N)C(O)C(C)O1 (stereo not given) (library stock concentration (final ~1000-fold dilution): 10 mM),IRF Lucia reporter activity,RAW-Dual [1]; [4],0.0119
same,IRF Lucia reporter activity,RAW-Dual [1]; agonist: LPS (TLR4) 0.1 ug/mL,0.0243
COc1cccc2c1C(=O)c1c(O)c3c(c(O)c1C2=O)CC(O)(C(=O)CO)CC3OC1CC(N)C(O)C(C)O1 (stereo not given),IRF Lucia reporter activity,RAW-Dual [2]; [5],0.0302
COc1cc(Nc2c(C#N)cnc3cc(OCCCN4CCN(C)CC4)c(OC)cc23)c(Cl)cc1Cl (library stock concentration (final ~1000-fold dilution): 10 mM),IRF Lucia reporter activity,RAW-Dual [1]; [4],0.817
same,IRF Lucia reporter activity,RAW-Dual [1]; agonist: LPS (TLR4) 0.1 ug/mL,1.11
COc1cc(Nc2c(C#N)cnc3cc(OCCCN4CCN(C)CC4)c(OC)cc23)c(Cl)cc1Cl,IRF Lucia reporter activity,RAW-Dual [2]; [5],0.95
CCn1c(=O)c(-c2ccc(Cl)cc2Cl)cc2cnc(Nc3ccc(N4CCNCC4)c(F)c3)nc21 (library stock concentration (final ~1000-fold dilution): 10 mM),IRF Lucia reporter activity,RAW-Dual [3]; [4],0.0945
same,IRF Lucia reporter activity,RAW-Dual [3]; agonist: LPS (TLR4) 0.1 ug/mL,0.139
COc1ccc(Cl)cc1NC(=O)Nc1cc(C)nc2ccccc12 (library stock concentration (final ~1000-fold dilution): 10 mM),IRF Lucia reporter activity,RAW-Dual [1]; [4],0.704
same,IRF Lucia reporter activity,RAW-Dual [1]; agonist: LPS (TLR4) 0.1 ug/mL,1.67
COc1cc2c(cc1O)CC[n+]1cc3c(OC)c(OC)ccc3cc1-2 (library stock concentration (final ~1000-fold dilution): 10 mM),IRF Lucia reporter activity,RAW-Dual [1]; [4],1.06 and 1.19
same,IRF Lucia reporter activity,RAW-Dual [1]; agonist: LPS (TLR4) 0.1 ug/mL,1.28 and 1.17
COc1cc2c(cc1O)CC[n+]1cc3c(OC)c(OC)ccc3cc1-2,IRF Lucia reporter activity,RAW-Dual [2]; [5],1.08
c1ccc(-c2ccc(C(c3ccccc3)n3ccnc3)cc2)cc1 (stereo not given),IRF Lucia reporter activity,RAW-Dual [2]; [5],0.879
c1ccc(-c2ccc(C(c3ccccc3)n3ccnc3)cc2)cc1 (stereo not given) (library stock concentration (final ~1000-fold dilution): 10 mM),IRF Lucia reporter activity,RAW-Dual [1]; [4],0.958
same,IRF Lucia reporter activity,RAW-Dual [1]; agonist: LPS (TLR4) 0.1 ug/mL,1.07
O=c1[nH]c2ccccc2n1CCN1CCN(c2cccc(C(F)(F)F)c2)CC1 (library stock concentration (final ~1000-fold dilution): 10 mM),IRF Lucia reporter activity,RAW-Dual [1]; [4],1.23
same,IRF Lucia reporter activity,RAW-Dual [1]; agonist: LPS (TLR4) 0.1 ug/mL,1.45
O=c1[nH]c2ccccc2n1CCN1CCN(c2cccc(C(F)(F)F)c2)CC1,IRF Lucia reporter activity,RAW-Dual [2]; [5],1.44
COc1cc(/C=C/C(=O)/C=C(O)/C=C/c2ccc(O)c(OC)c2)ccc1O,IRF Lucia reporter activity,RAW-Dual [2]; [5],0.0828
COc1cc(/C=C/C(=O)/C=C(O)/C=C/c2ccc(O)c(OC)c2)ccc1O (library stock concentration (final ~1000-fold dilution): 10 mM),IRF Lucia reporter activity,RAW-Dual [1]; [4],0.0353
same,IRF Lucia reporter activity,RAW-Dual [1]; agonist: LPS (TLR4) 0.1 ug/mL,0.212
COC(=O)C1=C(C)NC(C)=C(C(=O)OC(C)(C)CN(C)CCC(c2ccccc2)c2ccccc2)C1c1cccc([N+](=O)[O-])c1 (stereo not given) (library stock concentration (final ~1000-fold dilution): 10 mM),IRF Lucia reporter activity,RAW-Dual [1]; [4],0.134
same,IRF Lucia reporter activity,RAW-Dual [1]; agonist: LPS (TLR4) 0.1 ug/mL,1.96
COC(=O)C1=C(C)NC(C)=C(C(=O)OC(C)(C)CN(C)CCC(c2ccccc2)c2ccccc2)C1c1cccc([N+](=O)[O-])c1 (stereo not given),IRF Lucia reporter activity,RAW-Dual [2]; [5],2.39
CC1CC2C3CCC4=CC(=O)C=CC4(C)C3(F)C(O)CC2(C)C1(O)C(=O)COP(=O)(O)O (stereo not given) (library stock concentration (final ~1000-fold dilution): 10 mM water),IRF Lucia reporter activity,RAW-Dual [1]; [4],0.781
same,IRF Lucia reporter activity,RAW-Dual [1]; agonist: LPS (TLR4) 0.1 ug/mL,0.613
CC1CC2C3CCC4=CC(=O)C=CC4(C)C3(F)C(O)CC2(C)C1(O)C(=O)COP(=O)(O)O (stereo not given),IRF Lucia reporter activity,"RAW-Dual [2]; library stock concentration (final ~1000-fold dilution): 10 mM water, cytotoxicity flag (confluency mask): not cytotoxic",1.15
CCCNC(=O)c1cn2ncnc(Nc3cc(C(=O)NC4CC4)ccc3C)c2c1C (library stock concentration (final ~1000-fold dilution): 10 mM),IRF Lucia reporter activity,RAW-Dual [1]; [4],1.08
same,IRF Lucia reporter activity,RAW-Dual [1]; agonist: LPS (TLR4) 0.1 ug/mL,1.16
O=C(Nc1cccnc1)c1cc(-c2ccnc(F)c2)ccc1OCc1ccccc1 (library stock concentration (final ~1000-fold dilution): 10 mM),IRF Lucia reporter activity,RAW-Dual [1]; [4],0.769
same,IRF Lucia reporter activity,RAW-Dual [1]; agonist: LPS (TLR4) 0.1 ug/mL,1.13
